Like-named read-outs stand apart in the source and are kept apart here.
Experiments:
[1] = tested on: PC-9 cells; details: reported previously by the supplier; cited from earlier work
[2] = Plasma gefitinib concentration in patients of the phase II study; details: patients with best overall response PD (LC16-LC28)
Text: Patients whose locally advanced (stage IIIB) or metastasized (stage IV) NSCLCs were resistant to one or more regimens of conventional chemotherapy were enrolled in this trial. Inclusion criteria were (1) age greater than 20 years, (2) Performance Status (PS) 0-2, (3) adequate liver and kidney function tests. […] The treatment was continued until the patient was dropped from the study due to (1) progression of disease, (2) intolerable toxicity, or (3) withdrawal of consent.

[3] = tested on: PC-9 cells
[4] = tested on: advanced NSCLC; details: cited from earlier work
[5] = tested on: advanced NSCLC; details: cited from earlier work; remark: listed apart in the source
[6] = tested on: lung cancer; details: cited from earlier work
[7] = tested on: PC-9 cells; test: Flow cytometry (propidium iodide) of gefitinib-treated lung adenocarcinoma cells, sub-G1 population; type: cell-based, human; details: 1·0 μM gefitinib, 72 hours, serum-free medium, no treatment 6%
Protocol: The cells were trypsinized 72 hours after the treatment, collected in PBS, and fixed in 70% cold ethanol for 30 min. After treatment with 100 μg/ml RNase (Sigma-Aldrich Co., St. Louis, Mo., USA), the cells were stained with 50 μg/ml propidium iodide (Sigma-Aldrich Co.) in PBS. Flow cytometry was performed on a Becton Dickinson FACScan and analyzed by ModFit software (Verity Software House, Inc., Topsham, Me., USA). The percentages of nuclei in G0/G1, S, and G2/M phases of the cell cycle and sub-G1 population were determined from at least 20,000 ungated cells.

COc1cc2ncnc(Nc3ccc(F)c(Cl)c3)c2cc1OCCCN1CCOCC1 [gefitinib, N-(3-chloro-4-fluorophenyl)-7-methoxy-6-(3-morpholinopropoxy)quinazolin-4-amine]
anti-tumor effect of gefitinib in the presence of 10% FCS [1]: decreases | Plasma Gefitinib Concentration, mean [2]: 263.2 ng/mL | Plasma Gefitinib Concentration, range [2]: (150.7-405.6) ng/ml | viability of PC-9 cells in serum-free conditioned medium (NCI-H358 or -H522) containing gefitinib vs serum-free medium with the same gefitinib concentrations ([3]; 0·5 or 1·0 μM gefitinib, 72 hours, MTT): greater | anti-tumor activity of gefitinib on PC-9 cells under autocrine secretion of AREG ([3]; PC-9 cells, gefitinib-sensitive, AREG-non-expressing): dramatically decreased | tumour response rate ([4]; IDEAL 1, 2nd or 3rd line of chemotherapy, advanced NSCLC): 18.4% | disease control rate ([4]; IDEAL 1): 54.4% | overall symptom improvement rate ([4]; IDEAL 1): 40.3% | tumour response rate ([5]; IDEAL 2, 3rd or 4th line of chemotherapy, advanced NSCLC): 11.8% | disease control rate ([5]; IDEAL 2): 42.2% | overall symptom improvement rate ([5]; IDEAL 2): 43.1% | response rate ([6]; patients with lung cancer, earlier studies): less than 20% | tumor-response rates ([6]; phase II trials IDEAL 1 and IDEAL 2, 2nd-, 3rd-, or 4th-line monotherapy for advanced NSCLC): ~20% | percentages of nuclei in sub-G1 [7]: 24%

Source: patent US20060252056A1, “Markers for responsiveness to an erbB receptor tyrosine kinase inhibitor” (AstraZeneca UK Limited, priority 2003, published 2006)
